Results reported in ChEMBL document CHEMBL4888484, “Replenishing the malaria drug discovery pipeline: Screening and hit evaluation of the MMV Hit Generation Library 1 (HGL1) against asexual blood stage Plasmodium falciparum ,using a nano luciferase reporter read-out” (2022).
Screen size: about 150,000 compounds; about 540 (0.36%) showed an effect of 50% or more. This is one part of the list.

The compounds below were run on Plasmodium falciparum (assay: Primary screen in NF54 nanoGlo assay, in single point, at 2uM, 72h; a lower Z score goes with more inhibition). Details: timepoint 72 hour.
Format: functional, Erythrocyte

| Structure (SMILES) | % Inhibition [%] | Z score |
| --- | --- | --- |
| Cc1c(CC(=O)NC(C)C)c2c(n1Cc1ccccc1F)CCCC2=O | -14 | 2.11 |
| Cc1nn(C)c2nc(NC[C@H](C)Oc3cccnc3)sc12 | -9 | 1.68 |
| CN1CCO[C@@H](CNCC(=O)N(C)Cc2cccs2)C1 | -6 | 0.87 |
| O=C(NCCc1cccnc1)C1CC2CCC1C2 (stereo not drawn) | -13 | 1.68 |
| O=C(c1cc2ccccc2[nH]1)N1CCC[C@H]1c1ccncc1 | -13 | 1.82 |
| COc1cc(C)cc(NC(=O)N2CC[C@H](CN3CCCC3)C2)c1C | 10 | -1.78 |
| C[C@@H](C(=O)N(C)Cc1cccc(F)c1)N1CCCN(S(C)(=O)=O)CC1 | -2 | 0.27 |
| COC(=O)C1CCc2nnc(C3(C)CCCO3)n2CC1 (stereo not drawn) | 2 | -0.39 |
| CCOc1ccc([C@@H](O)Cn2ccn3nc(-c4ccccc4C)cc3c2=O)cc1 | -4 | 0.33 |
| Cc1cccc([C@@H](NS(N)(=O)=O)C(C)(C)C)c1 | 8 | -1.2 |
| COc1ccc(CCS(=O)(=O)NCC2CCN(c3cnccn3)CC2)cc1 | -12 | 1.88 |
| CC(C)(CC1CCCN(C(=O)NC2CC3CC3C2)C1)C(N)=O (stereo not drawn) | 1 | -0.2 |
| NS(=O)(=O)CCN1CCCC1C1CCCc2ccccc21 (stereo not drawn) | 4 | -0.54 |
| CCn1c(CO)nnc1[C@H]1C[C@H](NC(=O)CCc2c(C)nn(C)c2C)C1 | 1 | -0.17 |
| Cc1cc(CN2C(=O)N[C@@](C)(CCC(C)C)C2=O)on1 | -11 | 0.98 |
| CCCNS(=O)(=O)c1cc(-c2nc(C)c(C(=O)N3CCC(C)CC3)s2)n(C)c1C | -5 | 0.65 |
| Cc1ccn2c(CN3CCN([C@H]4CCN(Cc5ccccc5)C4)CC3)c(C)nc2c1 | 57 | -7.67 |
| COCC1(C(=O)N2CCC3(CCCC3)C2)CCC1 | 1 | -0.22 |
| C[C@H]1CCCCN1C(=O)CN1CCOCC12CCCC2 | 2 | -0.24 |
| Fc1cc(Br)cc([C@H](CC2CC2)NCc2ccno2)c1 | -5 | 0.56 |
| CC(C)[C@H](Cn1ccnc1)NC(=O)c1ccc(=O)n(C)c1 | -11 | 2.18 |
| C=CCNC(=O)CN1CCC[C@H](OCC)C1 | -5 | 0.7 |
| CCn1cc(C)c(C(=O)O)c1CC(=O)N1CCN(c2ccc(OC)cc2)CC1 | 9 | -1.25 |
| C[C@H](NCc1nccs1)c1ccc(Cl)cc1Cl | -12 | 1.54 |
| CC(CCc1cccc(F)c1)N(C)C1CCS(=O)(=O)C1 (stereo not drawn) | -7 | 1.27 |
| CCc1ccc(S(=O)(=O)Nc2ccccc2CCc2nc3ccccc3n2CC)cc1 | -8 | 0.89 |
| Cn1c(=O)n(C[C@@H]2CCNC(=O)CC2)c2ccccc21 | -14 | 2.6 |

| Structure (SMILES) | % Inhibition [%] | Z score |
| --- | --- | --- |
| Cc1cnc(Cn2cc(-c3cccc(Cl)c3Cl)nn2)cn1 | 0 | 0.08 |
| CCCCn1nc(-c2ccc(C(N)=O)cc2)nc1[C@H](C)N1CCCC1=O | -14 | 1.62 |
| CCOC1CCN([C@@H](C)CNS(=O)(=O)CC)CC1 | -6 | 1.36 |
| CN(C)C[C@]1(O)CCCN(Cc2c(-c3ccccc3)nc3ncccn23)C1 | 2 | -0.32 |
| CNS(=O)(=O)[C@H]1CCN(Cc2cn(C)nc2C2CCCC2)C1 | -4 | 0.53 |
| C[C@@H]1CN(Cc2ccc3c(c2)CN(C(=O)c2ccc(Oc4ccccc4)o2)CCO3)C[C@H](C)O1 | 7 | -0.86 |
| COc1cc2c(cc1OC)CN(C(=O)[C@H](Cc1ccccc1)n1cnnn1)CC2 | -13 | 1.8 |
| Cc1ccc(C)c(CN2C(=O)[C@](O)(CC(=O)c3ccccn3)c3ccccc32)c1 | 15 | -2.04 |
| CCCn1nnnc1CN1CC2CCCN(c3nnnn3C)C2C1 (stereo not drawn) | -5 | 0.69 |
| CC[C@@H]1Oc2ccc(NC(=O)c3ccccc3OC)cc2CN(Cc2cccc(C(F)(F)F)c2)C1=O | 2 | -0.14 |
| O=C(CC1(CC2=Nc3ccccc3S(=O)(=O)N2)CCCC1)NC1CCCCCC1 | -6 | 0.71 |
| CC(C)(N)c1ccc(Cl)c(Cl)c1 | -9 | 1.19 |
| CO[C@@]12CC[C@H](O)C[C@@H]1N(C(=O)c1nc(=O)[nH]c3ccccc13)CC2 | -7 | 0.7 |
| O=C1CN(C(=O)c2ccc(NC(=O)CCn3ccc4ccc(Cl)cc43)cc2)CCN1 | -5 | 0.69 |
| CCc1nnc(CN[C@@H](C)c2ccc(OC(F)(F)F)cc2)n1C | -6 | 0.81 |
| CC(C)=CCC[C@H](C)CN1CCCn2nc(CNC(=O)N(C)C)cc2C1 | 0 | 0.04 |
| Cc1cc(C)n(C[C@H](C)N2CCN(Cc3ccc(F)cc3)CC2)n1 | -13 | 1.84 |
| O=C(NCc1cncc(N2CCCC2=O)c1)c1ccccc1Br | -6 | 1.04 |
| Cc1ccc2nc(Cn3c(=O)[nH]c4ccccc43)cn2c1 | -17 | 1.97 |
| C[C@@H](CNC(=O)CCC(N)=O)c1nc2ccccc2o1 | -11 | 1.76 |
| O=C(Cc1ccc2cccnc2c1)N1CCOC[C@@H]1CCO | -6 | 1.17 |
| Cc1ccc2c(c1)CCCN2C(=O)c1ccc(S(=O)(=O)N2CCNC(=O)C2)cc1 | -3 | 0.48 |
| CCc1c(C)nc(C)nc1N1CC[C@H](N(C)C)[C@H](CCCO)C1 | -7 | 0.97 |
| Cn1nc(C2CCCC2)cc1NC(=O)CCc1ccncc1 | -3 | 0.4 |
| O=C(NC1C2CCc3ccccc3C21)N1CCC(n2cccn2)CC1 (stereo not drawn) | -14 | 1.65 |
| Cc1cc([C@@H](NS(=O)(=O)c2c(C)cnn2C)C(=O)O)ccc1Cl | -3 | 0.55 |
| Cc1c[nH]c(CNC(=O)N(CCOc2ccccc2)C[C@H]2CCCO2)n1 | -18 | 2.09 |
